According to PubChem BioAssay AID463173 (ICCB-Longwood Screening Facility, Harvard Medical School, 2010):
About 4,300 (8.3%) of roughly 52,000 compounds were called active. Cut-off read from the data, not from the text of the source: active = survival mostly below about 52% (no sharp cut-off); inactive = mostly above about 56%. This is one part of the list.

What follows are compounds tested on DeltatarO mutant (assay: S. aureus survival, RN4220 and DeltatarO strains – OD600, teichoic acid synthesis inhibitors, primary screen (AID 463173)). Conditions: S. aureus RN4220 wild type/DeltatarO growth, OD600, 18 h, active compounds read low, screened at 18.75 µg/mL (by protocol).

Compound	survival
COc1ccc(S(=O)(=O)NCc2cccn2Cc2cccc(C)c2)cc1Cl	inactive: 91%
COc1ccc(-c2cc(C(F)(F)F)nc(SCC(=O)N3CCCCC3)n2)cc1OC	inactive: 71%
CCc1cccc(C)c1NC(=O)C(CC)n1nc(C)c2c(C)n(-c3ccccc3)nc2c1=O (stereo not given)	inactive: 64%
COc1ccc(-c2nc(SCC(=O)Nc3ccccc3)c(-c3ccc(F)cc3)[nH]2)cc1OC	inactive: 49%
COc1ccc(OC)c(S(=O)(=O)N2Cc3ccccc3CC2C(=O)Nc2ccc(C)cc2C)c1 (stereo not given)	inactive: 62%
CCS(=O)(=O)N1CCc2cc(C(=O)N3CCN(c4ccc(OC)cc4)CC3)ccc21	active: 40%
COc1cccc(-n2c(SCC(=O)N3CCc4ccccc43)nc3c([nH]c4ccccc43)c2=O)c1	inactive: 81%
O=C(Nc1ccc(F)cc1F)c1cccc2c1C(=O)N(C1CCCCC1)C2	inactive: 94%
CCN(CC)CCNc1nc2c(c(=O)n(C)c(=O)n2C)n1CCc1ccccc1	inactive: 103%
Cc1cccc(CSc2nc3c(c(=O)[nH]2)CCC3)c1	inactive: 69%
CSc1ncc(Cl)c(C(=O)Nc2cc(C(F)(F)F)ccc2Cl)n1	inactive: 84%
Cc1cnc(NC(=O)CSc2nc3sc4c(c3c(=O)n2C)CCCC4)s1	inactive: 78%
COc1cc2c(=O)n(Cc3ccco3)c(=O)n(CC(=O)Nc3ccc(F)cc3)c2cc1OC	inactive: 71%
CCOc1cc2[nH]c(=O)n(Cc3ccc(C(=O)N4CCN(c5ccccc5)CC4)cc3)c(=O)c2cc1OCC	inactive: 98%
Cc1nc(-c2ccc(Cl)cc2)sc1CCNC(=O)C(=O)Nc1ccc2c(c1)OCCO2	inactive: 95%
O=C(CSc1nc(=O)n(Cc2cccnc2)c2c1CCC2)Nc1cccc(Cl)c1	inactive: 70%
O=C(O)c1ccc(NCc2nc3ccccc3n2CCOc2ccccc2Cl)cc1	inactive: 59%
COCCn1c(=O)[nH]c2cc(C(=O)N3CCN(c4ccc(Cl)cc4)CC3)ccc2c1=O	inactive: 76%
CCc1cc(C(=O)OC)c(NC(=O)CC2SC(=NC)N(C)C2=O)s1 (stereo not given)	inactive: 106%
Cc1ccc(CN2CCC(CNC(=O)c3cnn(-c4ccccc4)c3C3CCN(C(=O)OC(C)(C)C)CC3)CC2)cc1	inactive: 77%
COc1ccc(NC(=O)c2oc3ccc(S(=O)(=O)N4CCCCC4)cc3c2C)cc1Cl	inactive: 77%
COc1ccc(NC(=O)c2cc(C(C)=O)n3ccccc23)cc1	inactive: 78%
Cc1ccc2nc(NC(=O)c3nc(SCc4ccccc4F)ncc3Cl)sc2c1	inactive: 54%
O=C(CSc1ncc2c(n1)-c1cc(Cl)ccc1N(Cc1ccccc1)S2(=O)=O)Nc1ccc(F)cc1F	inactive: 70%
CC(C)Oc1ccc(C(=O)N2CCN(c3nc4c(F)cc(F)cc4s3)CC2)cc1	inactive: 108%
O=c1c(N2CCN(c3ccccc3)CC2)csc2ccc(Cl)cc12	inactive: 71%
O=C(CCSCc1cccc(Cl)c1)NCc1ccccc1Cl	inactive: 60%
CCCCn1cc(S(=O)(=O)c2ccccc2)c(=O)c2cc(F)c(N3CCN(CCC)CC3)cc21	inactive: 78%

Compound	survival
CC1CCCN(c2ncnc3c2cnn3-c2ccc(F)cc2)C1 (stereo not given)	inactive: 81%
CCN1c2ccccc2-n2cccc2C12CCN(C(=O)Nc1ccccc1Br)CC2	inactive: 91%
CCOCCn1ccc2c(OCC(=O)NCc3ccc(F)cc3)cccc2c1=O	inactive: 105%
CCOC(=O)N1CCC(NC(=O)c2cnn(-c3ccc(F)cc3)c2-n2cccc2)CC1	inactive: 102%
COc1ccc(N(C)C(=O)c2nn(-c3ccc(C)cc3)c(=O)n(C)c2=O)c(OC)c1	inactive: 82%
Cc1cc(C)cc(NC(=O)N2CCC(C(N)=O)(N3CCCCC3)CC2)c1	inactive: 103%
COc1ccc(CNC(=O)CC(C)n2nc(C)cc2C)cc1 (stereo not given)	inactive: 86%
CCN(CC)c1cc(C)c2cc(NC(=O)/C=C/c3ccccc3Cl)ccc2n1	inactive: 53%
N#CCC(=O)N/N=C/c1ccc(OC2CSC2)cc1	inactive: 80%
COc1ccc(N2CC(NC(=O)C(=O)c3c[nH]c4ccccc34)CC2=O)cc1 (stereo not given)	inactive: 80%
Cc1ccc(-c2nn(-c3ccc(F)cc3F)c3c2cnc2ccc(F)cc23)cc1	inactive: 70%
Cc1cccc(N(C)S(=O)(=O)c2ccc(-c3cc(C)no3)s2)c1	inactive: 128%
Cc1ccc(S(=O)(=O)N2CCc3cc(C(=O)N(C)Cc4ccccc4)ccc32)cc1	inactive: 74%
CC(=O)N1CCc2c(sc3c2c(=O)n(-c2ccc(F)cc2)c(=O)n3Cc2cc(C)ccc2C)C1	inactive: 112%
COc1ccc(-c2noc(-c3ccc(N4CCN(C)CC4)c([N+](=O)[O-])c3)n2)cc1	active: 42%
COc1ccc(S(=O)(=O)c2c(O)c(C)cc(NS(=O)(=O)c3ccc(Cl)cc3)c2C(C)C)cc1	inactive: 58%
CC(C)OC(=O)c1cc2c(ccn2C)n1CCC#N	inactive: 96%
COc1ccc(C2CC(=O)N(Cc3ccccc3C)c3c2c(C)nn3-c2nc(C)cc(C)n2)c(OC)c1 (stereo not given)	inactive: 80%
O=C(OCC(=O)N1CCN(c2ccccc2)CC1)c1ccccn1	inactive: 97%
COc1ccc(NC(=O)CSC2=Nc3ccccc3C3=NC(CC(=O)NCc4ccccc4OC)C(=O)N23)cc1Cl (stereo not given)	inactive: 68%
COc1ccc(-c2nc3c4ccccc4n(CC(=O)Nc4ccc(C(C)C)cc4)c(=O)n3n2)cc1	inactive: 78%
CC(C)(C)c1ccc(-c2nc(SCCOc3ccc(Cl)cc3)n3[nH]c(=O)cc3n2)cc1	inactive: 112%
Cc1ccccc1-n1c(SCC(=O)Nc2ccc(Cl)cc2Cl)nc(O)cc1=O	inactive: 75%
COc1ccc(-c2nc(C)c(CCNC(=O)C(=O)Nc3ccccc3F)s2)cc1	inactive: 115%
Cc1ccc(NC(=O)Cn2c(=O)n(CC3CCC(C(=O)NC(C)C)CC3)c(=O)c3sccc32)cc1 (stereo not given)	inactive: 74%
COc1ccc(C(CNC(=O)COc2cc(C)cc(C)c2)N2CCCCC2)cc1 (stereo not given)	inactive: 90%
COc1ccccc1-n1nc(-c2ccccc2)c2cnc3c(F)cc(F)cc3c21	inactive: 112%
